Hit rate of the full screen: of about 200,000 compounds, about 4,500 (2.2%) were called active. This list was built around the results that the source calls inconclusive (neither active nor inactive); the mix of calls is not that of the screen. The call rests on the fitted dose curve; in most records, active means well fitted inhibition curve with a large enough effect; inconclusive means small, poorly fitted or top-dose-only effect, or effect the other way; inactive means flat fitted curve, though single readings scatter. A potency beside an inconclusive call is a rough fit, not a confirmed value.
Target: Cruzipain (Trypanosoma cruzi) (UniProt P25779)
UniProt P25779, sequence (P25779 whole entry, looked up): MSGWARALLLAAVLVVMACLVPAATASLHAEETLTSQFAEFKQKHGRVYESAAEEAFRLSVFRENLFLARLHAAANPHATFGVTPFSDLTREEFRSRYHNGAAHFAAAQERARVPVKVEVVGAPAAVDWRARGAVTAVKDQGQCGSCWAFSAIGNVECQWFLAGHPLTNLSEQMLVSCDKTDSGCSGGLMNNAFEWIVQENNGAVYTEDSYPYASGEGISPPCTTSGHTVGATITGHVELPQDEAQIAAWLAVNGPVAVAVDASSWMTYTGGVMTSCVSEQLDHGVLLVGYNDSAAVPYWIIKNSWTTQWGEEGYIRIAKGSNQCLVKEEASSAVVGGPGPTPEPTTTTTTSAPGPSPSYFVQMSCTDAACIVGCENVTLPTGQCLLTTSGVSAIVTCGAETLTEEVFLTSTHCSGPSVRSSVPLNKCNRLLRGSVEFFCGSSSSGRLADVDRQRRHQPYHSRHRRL
Assay: qHTS Assay for Promiscuous and Specific Inhibitors of Cruzain (without detergent); further: nearly all actives have a fitted effect of over 40% in size;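 on max response, negative = inhibition: plate controls were enzyme without inhibitor for no effect and buffer without enzyme for full effect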
Conditions: purified cruzain, Z-FR-AMC fluorescence, no detergent
Method in brief: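 Detergent-free condition (0.00005% Triton X-100) in acetate buffer pH 5.5 with DTT. 1.5 nM enzyme and compound were pre-mixed 15 min, then 2 uM Z-FR-AMC substrate added; reaction progress from fluorescence change between first and third reads (60 s).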
Potency means the concentration at half of the fitted maximal effect; tags describe the fitted curve by direction and shape.

Row | Structure (SMILES) | Potency | max response, negative = inhibition
1 | CC(=O)[C@H]1CCC2C3CC=C4C[C@@H](OS(=O)(=O)O)CC[C@]4(C)C3CC[C@@]21C (stereo partly specified) | inconclusive: 31.6 µM [activator, single point] | 
2 | Cc1ccc(-c2nn(-c3cccc([N+](=O)[O-])c3)c3c2cnc2ccc(F)cc23)cc1 |  | inactive: 7.43%
3 | CCN(CC)c1ccc(NC(=O)COc2ccc(C#N)cc2)cc1S(=O)(=O)Nc1ccc(OC)cc1 | inconclusive: 39.8 µM [inhibitor, single point] | 
4 | CC(C)CCNC(=O)c1ccc(Cn2c(=O)c3cccn3c3cccnc32)cc1 |  | inactive: -16.6%
5 | CC1(C)C([N+](=O)[O-])C(c2ccc(Cl)cc2)NC(c2ccc(Cl)cc2)C1[N+](=O)[O-] (stereo unspecified) | inconclusive: 39.8 µM [inhibitor, single point] | 
6 | CCCCN(C)C(=O)CCCCn1c(=O)[nH]c2cc(OCC)c(OCC)cc2c1=O | inconclusive: 31.6 µM [activator, single point] | 
7 | O=C(CSc1nnc(SCc2cccc3ccccc23)s1)c1ccc2c(c1)OCO2 | active: 25.1 µM | 
8 | O=S(=O)(NCc1ccc(F)cc1)c1ccc2[nH]c3c(c2c1)CCCCC3 | inconclusive: 31.6 µM [inhibitor, single point] | 
9 | O=P(CN1CCN(c2ccccc2)CC1)(N1CCCCC1)N1CCCCC1 | inconclusive: 25.1 µM [activator, single point] | 
10 | O=[N+]([O-])c1ccc(Cl)c(/C=N/NC(=S)Nc2ccccc2)c1 | active: 25.1 µM | 
11 | CC(=O)Nc1cccc(C(=O)/C=C/c2ccc(Br)cc2)c1 | inconclusive: 39.8 µM [activator, single point] | 
12 | CCN(C(=O)c1nn(C)c2c1CSc1ccccc1-2)c1cccc(C)c1 |  | inactive: 4.38%
13 | COc1ccc(NC(=O)CN2C(=O)C(C)N=C(c3ccccc3)c3ccccc32)cc1OC (stereo unspecified) | inconclusive: 39.8 µM [activator, single point] | 
14 | CC(Oc1cccc(Cl)c1)C(=O)Nc1ccc([N+](=O)[O-])cn1 (stereo unspecified) |  | inactive: -9.88%
15 | COc1ccc(N2CCN(Cc3cc(=O)oc4cc(-c5ccccc5)c(O)cc34)CC2)cc1 | inconclusive: 39.8 µM [inhibitor, single point] | 
16 | COc1ccc(/C=N/n2cnnc2SCc2ccccc2)cc1 | inconclusive: 39.8 µM [activator, single point] | 
17 | Cc1ccc(OCCSc2nc3ccccc3n2CC(=O)N2CCOCC2)cc1C |  | inactive: 14.6%
18 | COc1cc(Cl)c(S(=O)(=O)N2CCN(c3c(C)cccc3C)CC2)cc1Cl | active: 20 µM | 
19 | COc1ccc(C2Nc3ccccc3C(=O)N2c2ccc(C)cc2)cc1Cn1nc(C)c([N+](=O)[O-])c1C (stereo unspecified) | inconclusive: 31.6 µM [inhibitor, single point] | 
20 | COc1cc(C(=O)OC(C)C(=O)Nc2ccc3c(c2)OCO3)ccc1OCc1c(C)noc1C (stereo unspecified) | inconclusive: 39.8 µM [activator, single point] | 
21 | Cc1cccc(N=C2NN=C(c3c(C)[nH]c4ccccc34)CS2)c1 | inconclusive: 39.8 µM [inhibitor, single point] | 

Row | Structure (SMILES) | Potency | max response, negative = inhibition
22 | Cc1cc(O)c(C(C)C)cc1NC(=O)Cn1nc(C)c2ccccc2c1=O | inconclusive: 25.1 µM [activator, single point] | 
23 | CCOc1cc(/C=N/NC(=O)C(C)Sc2ccccn2)ccc1O (stereo unspecified) |  | inactive: 2.19%
24 | COc1ccc(C2CC(c3ccccc3)=NN2C(=O)COC(=O)CNC(=O)c2ccccc2)cc1 (stereo unspecified) | active: 10 µM | 
25 | CCOc1ccc(-c2c(C)nn3c(C)c(C(=O)NC(C)c4ccccc4)cnc23)cc1OCC (stereo unspecified) | inconclusive: 31.6 µM [activator, single point] | 
26 | CCc1ccc(CNC(=O)c2cc3c(C)nc4ccccc4c3o2)cc1 | inconclusive: 39.8 µM [activator, single point] | 
27 | COC(=O)c1ccc(N2C(=O)CC(N(C)CCc3ccc(OC)c(OC)c3)C2=O)cc1 (stereo unspecified) | inconclusive: 25.1 µM [activator, single point] | 
28 | Fc1ccc(NCc2nc3ccccc3n2CCOc2ccccc2Cl)cc1 | inconclusive: 39.8 µM [inhibitor, single point] | 
29 | CC1CCc2c(sc3nnn(CC(=O)Nc4ccccc4Cl)c(=O)c23)C1 (stereo unspecified) | inconclusive: 15.8 µM [inhibitor, partial curve] | 
30 | CCOC(=O)C1=C(CN(CC)Cc2ccccc2)NC(=O)NC1c1ccc(Cl)cc1 (stereo unspecified) |  | inactive: -5.53%
31 | CC1=NN(c2ccccc2)C(=O)C1N=Nc1ccc(N)cc1 (stereo unspecified) | inconclusive: 10 µM [inhibitor, partial curve] | 
32 | O=C(CC12CC3CC(CC(C3)C1)C2)N/N=C/c1ccncc1 |  | inactive: -8.7%
33 | COC(=O)C1=CN(c2ccc(OC)cc2)C=C(C(=O)OC)C1c1ccc(C)c([N+](=O)[O-])c1 | inconclusive: 39.8 µM [inhibitor, single point] | 
34 | CC(C)(C)n1nnnc1C(c1ccc2ncccc2c1)N1CCSCC1 (stereo unspecified) | active: 7.94 µM | 
35 | CSc1ncc2c(n1)-c1ccccc1N(Cc1ccccc1C)S2(=O)=O |  | inactive: -3.68%
36 | COc1ccc(C(CNC(=O)c2ccc3c(c2)C(=O)N(CCC(C)C)C3=O)N2CCOCC2)cc1 (stereo unspecified) | inconclusive: 20 µM [activator, single point] | 
37 | Cc1ccc(S(=O)(=O)N2CCC(=O)N(CCOCc3cccc(Cl)c3)CC2)cc1 | inconclusive: 39.8 µM [activator, single point] | 
38 | COc1ccccc1N(CC(=O)NCCSc1ccccc1)S(=O)(=O)c1ccc(C)cc1 |  | inactive: 1.19%
39 | CN1CCN(CC(=O)N2CCn3c4c(c5cc(C6CCCCC6)ccc53)CCCC42)CC1 (stereo unspecified) | inconclusive: 31.6 µM [activator, single point] | 
40 | COc1cc(C(=O)Nc2nc3ccc(S(=O)(=O)N4CCOCC4)cc3s2)cc(OC)c1OC | inconclusive: 39.8 µM [activator, single point] | 
41 | O=C(CCC1N=C2c3ccccc3N=C(SCc3cccc(Cl)c3)N2C1=O)NCc1ccco1 (stereo unspecified) | inconclusive: 39.8 µM [activator, single point] | 

— PubChem BioAssay AID1476 (National Center for Advancing Translational Sciences (NCATS), 2009)
